According to PubChem BioAssay AID1346428 (National Center for Advancing Translational Sciences (NCATS), 2018):
“And” between values parts separate entries of the source, which are not always exact repeats. Equal values may be shown once. Out of some 48,000 compounds screened, about 1,200 (2.5%) were called active. Not shown: some 2% with an inconclusive outcome.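 The calls were made as follows: active = activation of at least 60% and not above a set upper limit (about 1 call in 100 departs from these limits); inconclusive = activation of 40% to 60%, or above that upper limit; inactive = activation under 40%.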 The list shows a part of the results. Where a structure was tested more than once in an assay, its records may differ in their call.

Each compound was assayed against Probable G-protein coupled receptor 32 (Homo sapiens) (UniProt O75388) (assay: qHTS for Agonists of Human Resolvin D1 Receptor DRV1). Details: CHO-K1 GPR32 beta-arrestin PathHunter luminescence, 90 min; at 76.9 µM; stronger effect = higher value; zero percent set by DMSO-only wells.
Chain of UniProt O75388 (O75388 whole entry, looked up, the tested form may be a part): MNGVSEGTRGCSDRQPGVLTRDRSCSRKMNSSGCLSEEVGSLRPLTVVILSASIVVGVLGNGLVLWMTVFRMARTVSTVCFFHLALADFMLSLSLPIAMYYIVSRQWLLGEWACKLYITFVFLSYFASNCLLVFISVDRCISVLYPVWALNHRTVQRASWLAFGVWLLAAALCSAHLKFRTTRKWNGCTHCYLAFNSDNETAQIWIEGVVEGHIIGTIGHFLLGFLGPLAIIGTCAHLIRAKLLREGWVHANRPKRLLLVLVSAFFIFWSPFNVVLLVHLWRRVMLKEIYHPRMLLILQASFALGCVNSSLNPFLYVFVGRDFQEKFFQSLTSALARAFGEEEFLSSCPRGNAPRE
In short: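 GPR32 activation in stably transfected CHO-K1 cells, detected as beta-arrestin recruitment by enzyme-fragment complementation. Compound exposure: 90 min, 37 °C.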
Also: 0% is about no effect.

| Compound | activation |
| --- | --- |
| Cc1ccc(NC(=O)CC2Sc3ccccc3NC2=O)c(Br)c1 (centres undefined) | inactive: 11% |
| CCc1cccc(NC(=O)CC2Oc3ccc(C)cc3NC2=O)c1 (centres undefined) | inactive: -4.52% |
| O=C(NCCS(=O)(=O)N1CCN(c2cccc(Cl)c2)CC1)c1cc(=O)c2ccccc2o1 | inactive: -9.21% |
| C=C(C)Cn1c(SCC(=O)Nc2cccc(Cl)c2)nc2sc3c(c2c1=O)CCCC3 | inactive: -1.25% |
| O=C(NCCC1=CCCCC1)c1ccc2c(c1)N(Cc1ccc(Cl)cc1)C(=O)c1ccccc1S2=O (centres undefined) | inactive: -7.67% |
| CC1=C(c2ccc(C)c(C)c2)S(=O)(=O)N=C1N1CCC(C(=O)NCc2ccc(Cl)cc2)CC1 | inactive: -12.5% |
| CCOc1ccc(NC(=O)Cn2cc(C(=O)c3ccc(CC)cc3)c(=O)c3ccc(C)nc32)cc1 | inactive: 14.2% |
| CCOC(=O)c1cccc(NC(=O)c2cnc(N3CCCCC3)c3ccccc23)c1 | inactive: -15% |
| COc1ccc(-n2c(=O)c3c(c4cc(OC)ccc4n3C)n(C)c2=O)cc1 | inactive: 2.11% |
| Cc1ccc(CNC(=O)CN2CCCN(Cc3ccc(F)cc3)S2(=O)=O)cc1 | inactive: 41.7% |
| Cc1ccc(-n2c(=O)c3cccnc3n2CC(=O)NCc2ccc(F)cc2)cc1C | inactive: -9.52% |
| Cc1cc(C)c(/C=C/c2onc(C)c2S(=O)(=O)N2CCC(C(=O)Nc3ccc(Cl)c(C(F)(F)F)c3)CC2)c(C)c1 | inactive: -6.84% |
| O=C(COc1ccccc1F)Nc1ccc(Cl)c(-c2nc3ccccc3[nH]2)c1 | inactive: 20.1% |
| COc1ccc(NC(=O)CSc2nccn2Cc2ccco2)cc1OC | inactive: 0.245% |
| CCN(CC)S(=O)(=O)c1ccc2c(c1)N(CC(=O)Nc1c(C)cc(C)cc1C)C(=O)C1CCCN21 (centres undefined) | inactive: -23.1% |
| CCCCOc1ccc(C(=O)Nc2onc3c2CCCC3)cc1 | inactive: 45.7% |
| COC(=O)C1CCN(C(c2ccccc2Cl)c2sc3nc(-c4ccco4)nn3c2O)CC1 (centres undefined) | inactive: 20.9% |
| Cc1ccc(NC(=O)C2CCCN(S(=O)(=O)c3ccc(F)cc3)C2)cc1 (centres undefined) | inactive: 6.23% |
| CCOC(=O)CN1C(C(=O)c2ccccc2)=C(OC(=O)c2ccccc2)c2ccccc2S1(=O)=O | inactive: -3.48% |
| Cc1cc(C)cc(NC(=O)Nc2cccs2)c1 | inactive: -9.1% |
| CCOC(=O)c1cccc(NC(=O)c2ccc3snnc3c2)c1 | inactive: -1.95% |

| Compound | activation |
| --- | --- |
| Cc1ccc(C)c(NC(=O)Cn2cnc3nc4c(cc3c2=O)CCCC4)c1 | inactive: -3.81% |
| COc1ccccc1N1CCN(C(=O)C2CCCN(S(=O)(=O)c3ccc4c(c3)oc(=O)n4C)C2)CC1 (centres undefined) | inactive: 22.1% |
| COC(=O)c1sccc1S(=O)(=O)N(CC(=O)NCc1ccccc1)c1ccc(C)cc1 | inactive: -25.7% |
| Cc1ccc(Nc2nc(N)nc(N)c2S(=O)(=O)c2ccccc2)cc1 | inactive: 26.7% |
| COCCNC(=O)CSc1nnc(NC(=O)Nc2ccc(C)cc2)s1 | inactive: -7.29% |
| CCc1ccc(-n2c(N3CCN(c4cccc(C)c4C)CC3)nc3ccccc3c2=O)cc1 | inactive: -25.3% |
| Cc1nc2ccn(Cc3cccnc3)c(=O)c2cc1C(=O)N1CCN(c2ccccc2)CC1 | inactive: -6.51% |
| COc1ccccc1C(=O)Nc1nc(-c2ccc(Br)cc2)ns1 | inactive: -7.17% |
| CCCCn1nc(NC(=O)c2cccc(Cl)c2)c2cc3ccc(C)cc3nc21 | inactive: 7.54% |
| CC(=O)Nc1ccc(NS(=O)(=O)c2cc3c4c(c2)CC(=O)N4CCC3)cc1 | inactive: -2.38% |
| COc1cccc(CNC(=O)CCCn2c(=O)c3cccn3c3cccnc32)c1OC | inactive: -22% |
| CC(C)(C)c1ccc(OCC(=O)NC(Cc2c[nH]c3ccccc23)C(=O)O)cc1 (centres undefined) | inactive: -13.5% |
| COc1ccc(-c2cc3nc(C)c(CCC(=O)N4CCN(c5cc(C)ccc5C)CC4)c(C)n3n2)c(OC)c1 | inactive: -11.9% |
| Cn1cc(S(=O)(=O)c2ccc(Cl)cc2)c(=O)c2cc(F)c(N3CCOCC3)cc21 | inactive: 1.43% |
| CN[C@H]1CC[C@@H](c2ccc(Cl)c(Cl)c2)c2ccccc21 | active: 80.8% and inactive: 6.38% |
| COc1cc(C(=O)NCCS(=O)(=O)N2CCN(c3ccccc3)CC2)cc(OC)c1OC | inactive: -21.4% |
| CCOc1ccc(NC(=O)CN2CCN(CC(=O)Nc3ccc(OC)cc3)CC2)cc1 | inactive: -12% |
| Cc1ccc(Nc2c(-c3ccccc3O)nc3cc(C)ccn23)cc1 | inactive: -13.2% |
| CN(C(=O)CSc1nc2ccc(NC(=O)COc3ccccc3Cl)cc2s1)c1ccccc1 | inactive: 18.4% |
| COc1ccccc1/C=C/c1nc(C#N)c(N2CCN(c3ccccc3)CC2)o1 | inactive: -20.7% |
| COc1ccc(N2CCN(S(=O)(=O)CCNC(=O)c3ccc(OC(C)C)cc3)CC2)cc1 | inactive: -7.46% |

| Compound | activation |
| --- | --- |
| COc1ccc(-c2cc(C(F)(F)F)nc(NCCc3ccccc3)n2)cc1 | inactive: 10.7% |
| O=C(NCCc1ccccc1)c1cc2sccc2n1Cc1ccc(F)cc1 | inactive: -3.31% |
| Cc1c(-c2ccc(Cl)cc2)c(=O)oc2c(CN3CCOCC3)c(O)ccc12 | inactive: -1.33% |
| COC(=O)c1cccc(CN2C(=O)SC(Nc3ccc(Br)cc3)C2=O)c1 (centres undefined) | inactive: -83.7% |
| CSc1cccc(NC(=O)C(c2ccccc2)N2Cc3ccccc3C2=O)c1 (centres undefined) | inactive: -24.5% |
| Cc1ccc(NC(=O)CSc2nc3ccc(NC(=O)c4ccco4)cc3s2)c(C)c1 | inactive: 15.7% |
| CNC(=O)c1c(NC(=O)c2ccc(S(=O)(=O)N3CCCC(C)C3)cc2)sc2c1CCC2 (centres undefined) | inactive: -8.05% |
| CC(CNC(=O)c1ccc2c(c1)nc1n2CCOC1)c1ccccc1 (centres undefined) | inactive: -7.95% |
| CC(C)NC(=O)CSc1nc2ccccc2c(=O)n1Cc1ccc(C(=O)NC(C)C)cc1 | inactive: -17.4% |
| O=C(CCS(=O)(=O)c1cccc2nonc12)Nc1cccc(F)c1 | inactive: -6.2% |
| Cc1cccc(C)c1OCCn1c(C2CC(=O)N(Cc3ccc(F)cc3)C2)nc2ccccc21 (centres undefined) | inactive: 11% |
| O=C(CSc1nc(=O)[nH]c2c1CCC2)NCc1ccc(Cl)cc1 | inactive: 0.504% |
| Cc1noc2ncnc(N3CCN(c4ccccc4F)CC3)c12 | inactive: 20.6% |
| CCSc1ncc(Cl)c(C(=O)Nc2ccc(S(=O)(=O)Nc3nccc(C)n3)cc2)n1 | inactive: -9.39% |
| Cc1ccc(Cl)cc1NC(=O)Cn1cc2c(n1)CCCCC2 | inactive: -7.3% |
| Cc1cccc(CSc2nc3cccnc3n2Cc2ccc(C(=O)NCc3ccco3)cc2)c1 | inactive: -17.3% |
| COc1ccc(CN(Cc2ccco2)c2cnc(S(C)(=O)=O)nc2C(=O)Nc2ccc(C)c(C)c2)cc1 | inactive: -17.1% |
| COC(=O)c1ccc(C(=O)Nc2ccc(-c3nc4cc(NC(=O)c5ccc(C(=O)OC)cc5)ccc4o3)cc2)cc1 | inactive: 14.4% |
| O=C(CCC1N=C2c3ccccc3N=C(SCc3ccccc3Cl)N2C1=O)N1CCN(c2ccccc2)CC1 (centres undefined) | inactive: -27.3% |
| Nc1ccc(S(=O)(=O)Nc2nccs2)cc1 | inactive: 0.127% |
| O=C(O)c1cccc(-c2noc(-c3ccccc3F)n2)c1 | inactive: 2.85% |

| Compound | activation |
| --- | --- |
| COC(=O)CC1Oc2ccc(C)cc2-n2cc(-c3ccc(F)cc3)nc21 (centres undefined) | inactive: 24.5% |
| COC(=O)c1ccc(NC(=O)c2cccc3c2C(=O)N(C2CCCCC2)C3)cc1 | inactive: -4.04% |
| CCCSCCCNC(=O)c1cc2n(n1)CCCN(Cc1ccc(C)cc1)C2=O | inactive: -1.07% |
| Cc1ccc(C)c(N2CCN(C(=O)CCn3c(=O)[nH]c4ccccc4c3=O)CC2)c1 | inactive: -15.3% |
| Cc1ccc(C)c(NC(=O)CSc2ncc3c(n2)-c2cc(Cl)ccc2N(Cc2ccccc2F)S3(=O)=O)c1 | inactive: 25.9% |
| COc1ccc(N2CCN(C(=O)c3cc(NS(=O)(=O)c4ccc(F)cc4)ccn3)CC2)cc1 | inactive: 33.3% |
| CCOc1ccc(CCNC(=O)CCN2N=C(c3ccc(OC)cc3)CCC2=O)cc1OCC | inactive: -10.7% |
| Cc1cc(Cl)ccc1NC(=O)CCn1nc(C)c2c(C)n(-c3ccccc3)nc2c1=O | inactive: 10.5% |
| Cc1cccc(OCCSc2nc3ccc(NC(=O)COc4ccccc4F)cc3s2)c1 | inactive: 25.5% |
| COc1ccc(-c2oc3ncn4nc(-c5ccccc5Cl)nc4c3c2-c2ccc(OC)cc2)cc1 | inactive: -1.93% |
| CC1(C)CC(=O)c2cc(-c3nc(-c4ccc(Cl)cc4)cs3)c(=O)n(-c3ccc(F)cc3)c2C1 | inactive: 8.3% |
| CC(CNC1CCCCC1)OC(=O)c1ccccc1 (centres undefined) | inactive: 3.32% |
| COc1ccc(Cn2ccc3nc(C)c(C(=O)NCc4ccc(C)cc4)cc3c2=O)cc1 | inactive: 40.8% |
| Cc1cc(C)c2c(=O)c3c(oc2c1)C(=O)N(Cc1ccco1)C3c1ccc(F)cc1 (centres undefined) | inactive: -2.18% |
| Cc1ccc(Oc2nc3ccccn3c(=O)c2/C=C(\C#N)c2nc3ccccc3s2)c(C)c1 | inactive: 13.9% |
| CCN(CC)c1cc(C)c2cc(NC(=O)/C=C/c3ccccc3OC(C)C)ccc2n1 | inactive: 18.3% |
| CCN(CC)c1ccc(NS(=O)(=O)c2ccc(-c3coc(C)n3)cc2)c(C)c1 | active: 68.4% |
| Oc1ccccc1-c1nnco1 | inactive: -87.3% |
| CCOc1ccc(-c2cc(C(=O)NCCc3ccccc3)c3c(-c4ccc(C)cc4)[nH]nc3n2)cc1 | inactive: 8.73% |
| O=C(NCc1ccc2c(c1)CCN2C(=O)c1ccc(Cl)cc1)c1ccco1 | inactive: -13.3% |
| O=C(Cn1c(=O)n(-c2ccccc2)c(=O)c2c3c(sc21)CCCC3)Nc1ccccc1 | inactive: -0.663% |
